Assay results from ChEMBL document CHEMBL4888484, “Replenishing the malaria drug discovery pipeline: Screening and hit evaluation of the MMV Hit Generation Library 1 (HGL1) against asexual blood stage Plasmodium falciparum ,using a nano luciferase reporter read-out” (2022).
In all, about 150,000 compounds went through this assay and about 540 (0.36%) showed an effect of 50% or more. The list shows a part of the results.

system: Plasmodium falciparum; experiment: Primary screen in NF54 nanoGlo assay, in single point, at 2uM, 72h; a lower Z score goes with more inhibition; type: functional, Erythrocyte; details: timepoint 72 hour

Row | SMILES | % Inhibition [%] | Z score
1 | Cc1cc(C(=O)N(C)Cc2ccccc2O)c2nc3n(c2n1)CCCCC3 | -7 | 1.35
2 | Cc1cc(C)n([C@@H](C)CNC(=O)c2cc(C(F)(F)F)n[nH]2)n1 | -2 | 0.23
3 | O=C1CCC2(CCN(C(=O)Cc3ccc(Cl)c(Cl)c3)CC2)N1 | -12 | 2.43
4 | Cc1ccnc2nc(-c3nc([C@H]4CCOC4)no3)nn12 | -14 | 1.89
5 | O=C(Cc1n[nH]c(=O)c2ccccc12)NC[C@@H]1CCCN2CCCC[C@H]12 | -13 | 1.64
6 | O[C@@H]1C[C@H](O)C12CCN(Cc1ccc3ccn(Cc4ccccc4)c3c1)CC2 | -13 | 1.32
7 | CCCN(C(=O)c1cccs1)C1CCN(C(=O)c2n[nH]c(C)c2C)CC1 | -11 | 1.4
8 | O=C(NCC1(N2CCOCC2)CCCCCC1)c1cn(CCc2ccccc2)nn1 | 6 | -0.52
9 | COc1ccccc1NC(=O)CN1CCO[C@H]2COCC[C@H]21 | -7 | 1.42
10 | CC(C)(CN1C(=O)C2CC3CCCCC3N2C1=O)N1CCOCC1 (stereo unspecified) | -13 | 1.4
11 | COC1CCCCC1NC(=O)N(CCC(F)(F)F)C1CCC1 (stereo unspecified) | -7 | 1.12
12 | CCOC(=O)c1cnc2nc(C)ccc2c1N1CCOCC1 | -18 | 1.49
13 | O=C(Nc1ccc(Cl)c(Cl)c1)[C@@H]1CS(=O)(=O)CN1C(=O)c1ccccc1 | -9 | 1.75
14 | O=C(O)CN1CC[C@H](OCCCc2ccccc2)C1 | -10 | 1.3
15 | CCOc1ncccc1-c1nc(C)nc2c1cnn2C | 0 | -0.1
16 | Cc1nc(-c2c(-c3ccccc3)ncn2[C@H](C)C(N)=O)c[nH]1 | -5 | 0.94
17 | O=C(c1ccco1)N1CCN(Cc2c(-c3ccc(Cl)cc3)nc3ccc(-c4cccc(C(F)(F)F)c4)cn23)CC1 | -31 | 3
18 | CC(C)[C@@H](C(=O)N(C)c1ccn(C)n1)c1cccnc1 | -9 | 1.71
19 | CCn1cnc2c1c(=O)n(CCC(C)C)c(=O)n2-c1ccc(C(C)C)cc1 | -9 | 1.15
20 | NC(=O)C1CCN(CCC(=O)N2CCc3cc4ccc3[C@@H]2c2cccc(c2)OCCCNC(=O)c2cc(ccc2O)O4)CC1 | 92 | -17.59
21 | COc1cccc(NCc2ccccc2-c2nnc(-c3ccccc3Cl)o2)c1 | -9 | 1.44
22 | O=C(NC[C@H]1CCCN2CCCC[C@@H]12)c1ccc2c(c1)OCO2 | -4 | 0.44
23 | N#Cc1cccnc1NCCNc1cccc2ccccc12 | 3 | -0.29
24 | C[C@@H](c1cccc(Br)c1)N1CCC(c2nncn2C)CC1 | -13 | 2.07
25 | CCS(=O)(=O)N1CCc2cc(S(=O)(=O)N(C)Cc3ccccc3)ccc2C1 | 3 | -0.27
26 | C[C@@H](C(=O)Nc1nnc(C2(c3ccccc3)CC2)s1)c1cccs1 | -11 | 2.15
27 | CNC(=O)[C@H]1CC[C@H](CNc2ccc(Cl)c(C)n2)CC1 | -5 | 0.55

Row | SMILES | % Inhibition [%] | Z score
28 | Cc1nc(CN(C)CC(=O)NCCOc2ccccc2)no1 | -6 | 0.85
29 | CCCN(C)c1cc(Oc2ccc(C)cc2OC)ncn1 | 1 | -0.2
30 | CC(C)N(C)S(=O)(=O)N1CCC[C@@H]1CC(=O)c1ccc(F)cc1 | -12 | 1.47
31 | CCNc1ncc(S(=O)(=O)N2CCC[C@H](N(C)C)C2)cc1Cl | -9 | 1.1
32 | O=C(CC1=CCCCC1)NC[C@]1(O)CCOC1 | -6 | 0.85
33 | NC(=O)c1ccccc1NC(=O)c1cnc(OC2CCOCC2)c(Cl)c1 | -6 | 1.16
34 | CC(C)c1nc(CCN(C)C(=O)c2nc3c(s2)CCCC3)no1 | 17 | -2.24
35 | CC(=O)N1CC[C@@](N)(C(=O)Nc2cnc3ccccc3c2)C1 | -5 | 0.79
36 | O=C(c1cc2sccc2n1CCc1ccccc1)N1CCCC1 | -19 | 3.48
37 | COc1ccccc1Oc1nc(N2CCC(C)CC2)nc2c1CN(C(=O)c1ccc(F)cc1)CC2 | 0 | 0.04
38 | Cc1nc(-c2ccc(-c3noc(Cc4ccc(F)cc4)n3)cc2)cs1 | -10 | 0.97
39 | COC[C@@]1(CO)CCN(c2nc3cc(S(N)(=O)=O)ccc3[nH]2)C1 | 1 | -0.17
40 | CC(C)CC(C)N(C)CC(=O)NC(C)(C#N)C1CC1 (stereo unspecified) | -3 | 0.38
41 | CCN1CCN(c2c(CN(CC(C)C)C(=O)COC)c(C)nn2-c2cccc(F)c2)CC1 | 9 | -1.11
42 | CCc1nn(C)cc1C(=O)Nc1cccc(N(C)C(C)=O)c1 | 2 | -0.43
43 | Cc1cccc2nc(C(=O)N[C@H]3CC[C@@H]4CCC[C@@H]43)c(F)n12 | 8 | -0.88
44 | O=C(N[C@@H]1CCN(C(=O)Cc2cccc(Cl)c2)C[C@@H]1CO)c1cccnc1 | 2 | -0.2
45 | CC(=O)Nc1nc(Cn2cc(CN3CCOC[C@H]3C)nn2)cs1 | -4 | 0.7
46 | C[C@@](CO)(CCF)NC(=O)c1ccccn1 | 4 | -0.45
47 | CC#CCN(Cc1ccco1)C(=O)C1(N2CCN(CC)CC2)Cc2ccccc2C1 | -13 | 1.87
48 | CCc1n[nH]cc1C(=O)N[C@@H](CCO)c1ccc(C)cc1 | -2 | 0.33
49 | CC(C)C(=O)Nc1c(-c2ccccn2)nsc1C(=O)NCCc1ccccc1 | -1 | 0.2
50 | CCOC(=O)c1c(CN2CCCC2)n(C)c2cc(-c3cccnc3)c(O)c(Cn3ccnc3)c12 | 58 | -10.36
51 | O=C(c1csc(-c2cccs2)n1)N1CCn2nc(CO)cc2C1 | -13 | 2.26
52 | CC(C)[C@H](Cn1ccnn1)NC(=O)COc1ccccc1 | 11 | -1.42
53 | Cn1c(C(=O)N2CCC(NC(=O)NC3CCCCC3)CC2)c(Cl)c2ccccc21 | -2 | 0.33
